# PubChem BioAssay AID624296 (National Center for Advancing Translational Sciences (NCATS), 2012)
# The campaign covered roughly 350,000 compounds. About 9,900 (2.8%) were called active. Inconclusive results, whose numbers are uncertain, are shown with a selection of clear calls. Calls come from the whole dose curve; as a rule, active = well fitted activation curve with a large enough effect; inconclusive = small, poorly fitted or top-dose-only effect; inactive = no such curve, though single readings can be large or run the other way. Potencies of inconclusive entries are left out as doubtful fits.
# Assay: A quantitative high throughput screen for small molecules that induce DNA re-replication in MCF 10a normal breast cells. For activity, positive = re-replication: % of control where 0% means no effect. Note: nearly all actives have a fitted effect of over 50% in size.
# Details: MCF 10A DNA re-replication, Hoechst nuclear intensity, 48 h; activity, positive = re-replication: at 46.1 µM (top of the series)
# Potency is the fitted concentration of half-maximal effect; tags give direction and shape of the fitted curve.
Structure (SMILES),Potency,"activity, positive = re-replication"
Brc1ccc(C2C3=C(Nc4ncnn42)c2ccccc2OC3c2ccncc2)cc1 (stereo not drawn),"inconclusive [activator, single point]",–
Fc1ccccc1C1c2cccn2CCN1C(=S)Nc1cccc(Br)c1 (stereo not drawn),–,inactive: 1.5%
COc1ccc(/C=N/N(CCC(=O)NC(C)(C)C)C2=NS(=O)(=O)c3ccccc32)cc1,–,inactive: -1.44%
C/C=C/c1ccc(OCCN2C(=O)NC(C)(C)C2=O)c(OC)c1,"inconclusive [activator, partial curve]",–
COc1ccc(C(=O)NCCCN2CCOCC2)cc1S(=O)(=O)N1CCCc2ccccc21,"inconclusive [activator, single point]",–
COc1ccc(-c2cc(-c3cc(OC)ccc3O)[nH]n2)cc1,"inconclusive [activator, single point]",–
Nc1cccc(-c2nc3ncccc3o2)c1,"inconclusive [activator, partial curve, poor fit]",–
COC(=O)[C@H](Cc1ccccc1)NC(=O)N1CCN(c2ccc(F)cc2)CC1,"inconclusive [activator, single point]",–
O=C(NCCC1=CCCCC1)NC12CC3CC(CC(C3)C1)C2,"inconclusive [activator, partial curve, poor fit]",–
COc1ccccc1NS(=O)(=O)c1ccc(C)c(C(=O)NC2CCN(Cc3ccccc3)CC2)c1,"inconclusive [activator, single point]",–
Cn1cc(CC(=O)NCc2ccc(F)cc2)c2ccccc21,–,inactive: 4.21%
Cc1cc(NC(=O)CSc2nc3c(c(=O)n2-c2ccc(Br)cc2)SCC3)no1,active: 8.2 µM,–
N#Cc1c(N2CCN(c3ccc([N+](=O)[O-])cc3)CC2)[n+](=O)c2ccc(Cl)cc2n1[O-],"inconclusive [activator, full curve, poor fit]",–
C#Cc1ccc(CN2CCC(Oc3cc(C(=O)NC4CC4)ccc3OC)CC2)cc1,–,inactive: -8.53%
CCOc1ccc2nc3c(cc2c1)CN(CCCO)C(=NCCOC)S3,"inconclusive [activator, single point]",–
O=C(Nc1ccc(Cl)c(Cl)c1)OCCNC(=O)c1ccncc1,–,inactive: -0.0988%
O=C(CSc1cn(CCNC(=O)c2c(F)cccc2F)c2ccccc12)NCC1CCCO1 (stereo not drawn),–,inactive: -2.39%
Cc1nc2scc(-c3ccc(C(C)(C)C)cc3)c2c(=O)n1N,"inconclusive [activator, single point]",–
Cn1c(CNC(=O)c2ccc(Cl)c(Cl)c2)nnc1SCC(=O)Nc1sc2c(c1C#N)CCCC2,"inconclusive [activator, single point]",–
CN(C(=O)CN1C(=O)/C(=C/c2ccc(Cl)cc2)SC1=S)C1CCS(=O)(=O)C1 (stereo not drawn),"inconclusive [activator, single point]",–
COCCCNC(CC(=O)Nc1cc(C)cc(C)c1)C(=O)O (stereo not drawn),–,inactive: -0.268%
CN1C(=O)C(CC(=O)Nc2ccc(Cl)cc2)N(Cc2ccco2)C1=S (stereo not drawn),active: 20.6 µM,–
Cc1ccc(C23CC4CC(CC(NC(=O)NCCN(C)C)(C4)C2)C3)cc1,"inconclusive [activator, partial curve, poor fit]",–

Structure (SMILES),Potency,"activity, positive = re-replication"
COc1ccc(NC(=O)NC2CCCc3ccccc32)cc1OC (stereo not drawn),–,inactive: -23.1%
CCN1CCCC1CNC(=O)c1cc2ccc(OC)cc2[nH]1 (stereo not drawn),"inconclusive [activator, single point]",–
CC[n+]1c(/C=C2\C=C(C)CC(C)C2)sc2ccccc21 (stereo not drawn),active: 23.1 µM,–
CC(C)(C)c1ccc(C(=O)NNC(=O)c2cccc(Br)c2)cc1,active: 11.6 µM,–
CNc1ccc(/C=C/C(=O)c2cccc3ccccc23)cc1[N+](=O)[O-],"inconclusive [activator, full curve, poor fit]",–
CCCOc1ccc(-c2nn(-c3ccccc3)cc2/C=C2\SC(N)=NC2=O)cc1C,"inconclusive [activator, single point]",–
COc1cccc(-c2nc(-c3ccccc3)nc(N3CCN(C)CC3)c2C#N)c1,"inconclusive [activator, single point]",–
O=C(CNC(=O)c1ccc(-c2ccccc2)cc1)OCc1c(Cl)cccc1Cl,"inconclusive [activator, single point]",–
CN(C)CCP(=O)(c1ccccc1)c1ccccc1,"inconclusive [activator, single point]",–
COC1=C(c2ccccc2)C(=O)c2ccccc2C1=O,"inconclusive [activator, single point]",–
Cc1ccc2[nH]c(C(=O)N3CCCC(Nc4ccc(F)cc4)C3)cc2c1 (stereo not drawn),"inconclusive [activator, single point]",–
Cc1ccccc1N1CCN(C2CCCN(C(=O)c3cc(CC(C)C)nn3C)C2)CC1 (stereo not drawn),"inconclusive [activator, partial curve, poor fit]",–
CCN1CCN(c2ccc(S(=O)(=O)N3CCCCC3)cc2NC(=O)Cc2c(F)cccc2Cl)CC1,–,inactive: 15.6%
COc1cc(C(=O)N2CCN(S(=O)(=O)c3ccc(Cl)cc3)CC2)ccc1OCC(=O)N1CCOCC1,"inconclusive [activator, single point]",–
COc1ccc(CCN2C(=O)c3[nH]nc(-c4ccccc4O)c3C2c2cccc(Cl)c2)cc1 (stereo not drawn),"inconclusive [activator, full curve, poor fit]",–
OCC1(CCCc2ccccc2)CCN(C2CCC2)CC1,"inconclusive [activator, partial curve, poor fit]",–
COc1ccc(N/C=C2\C(=O)c3c(sc(C)c3C)N(C)S2(=O)=O)cc1,"inconclusive [activator, partial curve, poor fit]",–
OC[C@@H](O)[C@@H](O)[C@H](O)[C@@H](O)CO,"inconclusive [activator, full curve, poor fit]",–
COc1ccc(-c2cc(C(=O)Oc3ccc([N+](=O)[O-])cc3)c3ccccc3n2)cc1,active: 18.4 µM,–
COc1cc(OC)cc(C(=O)Nc2cccc(NC(=O)c3cc(OC)cc(OC)c3)n2)c1,–,inactive: 6.52%
O=C(Nc1ncc2c(n1)-c1ccccc1CC2)c1ccc(Cl)cc1,–,inactive: 9.71%
OCCCNc1nc(-c2ccc(Cl)cc2)nnc1-c1ccccc1,"inconclusive [activator, partial curve, poor fit]",–
CCOc1ccc(-c2cc(C(=O)N/N=C(\C)c3cccnc3)c3ccccc3n2)c(OCC)c1,"inconclusive [activator, single point]",–

Structure (SMILES),Potency,"activity, positive = re-replication"
COc1ccc(C2CC(c3ccc(OC)c(OC)c3)=NN2S(C)(=O)=O)cc1 (stereo not drawn),–,inactive: 1.36%
NC(=O)c1ccccc1NC(=O)C(c1ccccc1)c1ccccc1,"inconclusive [activator, partial curve, poor fit]",–
Cc1ccc2c(COC(=O)c3ccc(C)c(C)c3)cc(=O)oc2c1,"inconclusive [activator, single point]",–
O=C1COc2c1ccc(O)c2O,–,inactive: -41.8%
CC(=O)Nc1cccc(C(=O)OCC(=O)Nc2c(C)nn(-c3ccccc3)c2C)c1,"inconclusive [activator, full curve, poor fit]",–
Cn1c(-c2ccc(Br)cc2)cnc1NCc1ccc(C#N)cc1,"inconclusive [activator, single point]",–
CCC(=O)Nc1cccc(C(=O)c2ccc(C)c(C)c2)c1,–,inactive: 15.1%
CSCC[C@H](NC(=O)COc1ccc(Cl)cc1Cl)c1nc2ccccc2[nH]1,"inconclusive [activator, partial curve, poor fit]",–
COCCCn1c(-c2cccs2)nc2nc3ccccc3nc21,active: 18.4 µM,–
Cc1cccc(C(=O)Oc2ccc(/C=N/O)cc2)c1,–,inactive: 0.671%
CSc1ncc(CN2CCCC(C(=O)Nc3ccc(-c4ccco4)cc3)C2)cn1 (stereo not drawn),"inconclusive [activator, partial curve]",–
C1CCCCCC2(CCCCC1)OCC(CN1CCOCC1)O2 (stereo not drawn),"inconclusive [activator, single point]",–
O=C(OCc1cccc(Cl)c1)c1cc([N+](=O)[O-])ccc1N1CCOCC1,"inconclusive [activator, single point]",–
CCCc1cnc(NCCNCC(O)COc2ccc(Cl)c(Cl)c2)nc1 (stereo not drawn),"inconclusive [activator, partial curve, poor fit]",–
Cc1ccc(/C=C/C(=O)OCC(=O)N(CC(C)C)c2c(N)n(Cc3ccccc3)c(=O)[nH]c2=O)o1,"inconclusive [activator, single point]",–
Cc1ccc(NC(=O)c2csc(-c3ccccc3)c2C)cc1,–,inactive: 25.9%
CCCCCCCn1c2c(c(=N)c3ccccc31)CCC2,"inconclusive [activator, full curve, poor fit]",–
COc1ccc(C(=O)OCCOc2cccc(Cl)c2)cc1S(=O)(=O)N1CCOCC1,"inconclusive [activator, single point]",–
O=C(O)COc1nn(Cc2ccccc2)c2ccccc12,–,inactive: -0.222%
NC(=S)N/N=C\c1c2ccccc2cc2ccccc12,"inconclusive [activator, single point]",–
CCOC(=O)c1[nH]c2ccc(OC)cc2c1NC(=S)N1CCN(c2ccccc2OC)CC1,"inconclusive [activator, single point]",–
CCc1c(C(=O)NCCc2cccc(C)c2)[nH]c(C)c1C(C)=O,"inconclusive [activator, partial curve, poor fit]",–
